This data set concerns the molecule itself. Nature of the data set: SEC-SAXS. In general terms: SEC sorts molecules by how far they enter the pores of the column.

B1: G3BP1 NTF2LA (NTF2L and the adjacent IDR1 region, […]) (domain or fragment)
chain: not shown
Consider B1, for which the binding result was “binds”.

These data come from publication doi:10.1101/2025.03.27.645651 (bioRxiv, 2025).
